Source: the RNAGym collection of RNA variant scans (doi:10.7554/elife.90254)
The source gives no read counts; variants with many changes may rest on few reads.

B1: LINE1-mini (parent)
chain: GGCAGAGCUCAACACAGCGUGGCAAAGUGGCUGUGGCUAGACUGCC

Variants of: B1
Assay: self-cleavage, relative activity (ratio to wild type); higher = more cleavage; in vitro, sequencing; the parent is a self-cleaving ribozyme

| Variant | self-cleavage |
| --- | --- |
| GGAAGAACUCAACACAGAGUGGCAAAGUGGCUGUGGCUAGACUGCC | 0.3 |
| GGAAGAGCUCAACACAUCGUGCCAAAGAGGCUUUGGCUAGACUGCC | 0.09 |
| GGAAGACCUCAACACAGCGUGUCAAAGUGGUAGUGGCUAGACUGCC | 0.11 |
| GGAAGAGCUCAACACAGCGUGUCCAAGUGGCUGUGGCUAGACUGCC | 1.39 |
| GGAAGAACUCAACACAGCGUGGCAAAGUGGCUGUGGCUAGACUGAC | 0.33 |
| GGAAGAGCUCAACACAGCGUGCCAAAUUAACGGUGGCUAGACUGCC | 0.15 |
| GGAAGACCUCAACACAGAGUGGCAAAGUGGCUGUGGCUAGACUGCC | 0.01 |
| GGAAGACCUCAAAACAUCGUGGCAAAGUGGCUGUGGCUAGACUGCC | 0.03 |
| GGAAGACCUCAACACAGAGUGGCAAAGUGGCUGUGGUUAGACUGCC | 0.27 |
| GGAAGACCUCAACACAGCGUGGCAAAGUGGCUGAGGCUAGACUGCC | 0.01 |
| GGAAGACCUCAACACAGCGUGGCAAAGUGGCUGGGGCUAGACUGCC | 0.1 |
| GGAAGAGCUCAACACAUCGUGGAAAUGUGGCUGUGGCUAGACUGCU | 0.04 |
| GGAAGAGCUCAACACAGCGUGACAAAGUGGCUUUGGCUAGACUGCG | 0.18 |
| GGAAGAACUAAACACACCGUGGCAAAGUGGCUGUGGCUAGACUGCC | 0.11 |
| GGAAGAUCUCAACACAGCGUGGCAAAUUGGCUGUGGCUAGACUGCC | 0.33 |
| GGAAGAGCUCAACACAGCGUAUCAAAGUGGCUGUGGCUGGACUGCC | 0.2 |
| GGAAGAGCUCAACACAUUGUGGCAAAGUGGCCUUGGCGAGACUUCC | 0 |
| GGAAGAACUAAACACAGCGUGGCAAAGUGGCUGUGUCUAGACUGCC | 0.02 |
| GGAAGAGCUCAACACAGCCUGGCAAAGUAGCCGUGGCUAGAUUGCC | 0.09 |

| Variant | self-cleavage |
| --- | --- |
| GGAAGACCUGGACAAAGAGUCGCAAAGUGGCUGUGGCUAGACUGCC | 0.03 |
| GGAAGAGCUCAACACACCGUGGGAAAGUGGCUGUGGCAAGACUGCA | 0.04 |
| GGAAGAGCUCAACACAACGUGACAAAGUGGCUGUGGCUAGACUGCC | 0.13 |
| GGAAGAGCUCAACACAGCCUGGCAAAGUGGCUGUGGCUAGACUGUC | 0.28 |
| GGAAGAGCUCAACACAGCAUGGCGAAGUGGCUGUGGCUAGAUUGCC | 0.34 |
| GGAAGAGCUCAACACAGCCUGGCAAAGUGGCUGUGGCUAGAAUGCC | 0.07 |
| GGAAGAGCUCAACACAGCAUGGCAGAGUGCCUGUGGCUAGAUUGCG | 0.1 |
| GGAAGAGCUCAACACAGCGUGACAAAGUGACUGUGGCUAGACUGCC | 0.95 |
| GGAAUAGCUCAACACAGCGUGGCAAAGAGGCUGUGGCUAGACUGCC | 0.25 |
| GGAAGAGCUCAACACAGCCUGGCAUAGUGGCAGUGGCUAGACUGCC | 0.25 |
| GGAAGAGCUCAACACAGCAUGGCGAAGUGGGUUUGGCUAGACUGCU | 0.52 |
| GGAAGAGCUCAACACAUCGUGGGAAGGUGGCUCUGGCUAGACUGCC | 0.01 |
| GGAAGAUGUCACCACAGCGUGGCAAAGUGGCUGUGGUUUGACUGCC | 0.02 |
| GGAAGAGCUCAACACAGCGUCGCAAAGUGGCUGUGGCGAGACUGCC | 0.03 |
| GGAAGAGCUCAACACAGCGUGACAAUGUGGCUGUGGUUAGACUGCC | 0.09 |
| GGAAGACCUCAACACAGCGUGGCGAAGUGGCUGUGGCUAGACUGCC | 0.07 |
| GGAAGAGCUCAACACAGCGUCGCAAAGUGGCUUUGGCUAGACUGCC | 0.1 |
| GGAAGACCUCAACACAGCGUGGCAAAGUGGCAGUGGCUAGACUGCC | 0.09 |
| GGAAGAGCUCAACACAGCGUGUUAAAGUGGCUGUGGCUGUACUGCC | 2.83 |

| Variant | self-cleavage |
| --- | --- |
| GGAAGAACUCAACACAGCAUGGCAAAGUGGUUGUGGCUAGACUGCC | 1.4 |
| GGAAGAGCUCAACACAAGGUGGCAAAGUGGCUGUGGCUGGACUGGC | 0.1 |
| GGAAGAGCUCAACACAGCGUGCCAAAGUGGCUGUGUCUAGUCUACC | 0.07 |
| GGAAGACCUCAAUACAGCGUGGCAAAGCGGCUGUGGCUAGACUGCC | 0.34 |
| GGAAGAGCUCAACACAACGUGGCAAAGUGCCUGUGGCUAGACUGCA | 0.15 |
| GGAAGAGCUCAACACAGCCUGGCAAAGUGGCGGUGGCUAGAUUGAC | 0.07 |
| GGAAGACCUCAACACAGCGUGGCAAAGUGGCAGUGGCUAGACUACC | 0.04 |
| GGAAGAGCUCAACACAGCCUGGCAAAGUGGCUGUGGCUAGACUCCC | 0.15 |
| GGAAUAGCUCAACACAGCGUGGCAAAGUGGCUGUGGCUAGACUGCU | 0.09 |
| GGAAGACCUCAAGACAGCGUGGCAAAGUCGCUGUGGCUAGACUGCC | 0.12 |
| GGAAGACCUCAACACAGCGUGACAAAGUGGCUGUGGCUAGACUGCC | 0.1 |
| GGAAGAGCUCAACACAGCCUGGCAUAUUGGUUGUGGAUAGACUGCC | 0.23 |
| GGAAUAGCUCAACACAGCGUGGAAAAGUGGCUAUGGCUAGACUGCC | 0.17 |
| GGAAGAUCUCAACACAGCGUGGCAAAGUGGCUGUAGCUAGACUGCC | 0.54 |
| GGAAGAGCUCAACACAUCGUGUCAAACUGGCUGUGGCUAGACUGCG | 0.21 |
| GGAAUAGCUCAACACAGCGUGGCAAAGUGGCUGUAGCUAGACUGCA | 0.04 |
| GGAAUAGCUCAACACAGCGUCGCAAAGAGGCUGUGGCUAGACUGCC | 0.03 |
| GGAAGAACUCAACACUGAAUGGCAAAGUGGCUGUGGCUAGACUGCC | 0.2 |
